Assay results published in US12459974B2, “Bicyclic peptide ligands specific for Nectin-4” (priority 2018, dated 2025).
Part of at least one peptide drawing is inferred or uncertain, most often the ends. *1 amine or outer side, *2 acyl side, *3 side chain or, on linkers, in order; H or OH if unused. Where a SMILES comes first, the peptide text is derived from it. Bridges are numbered along the chain shown (N, C = ends). [ ]: non-standard residue; d: D form. TATA = O=C(CC[*:1])N1CN(C(=O)CC[*:2])CN(C(=O)CC[*:3])C1; 1Nal = N[C@@H](Cc1cccc2ccccc12)C(=O)O; Hyp = O=C(O)[C@@H]1C[C@@H](O)CN1; hArg = N=C(N)NCCCC[C@H](N)C(=O)O

Key:
human Nectin-4 [1] = target: T1, human Nectin-4 (Homo sapiens, UniProt Q96NY8); experiment: Nectin-4 direct binding assay (fluorescence polarisation); settings: fluorescently tagged peptide, TATA scaffold
T1 sequence (Q96NY8 32-510): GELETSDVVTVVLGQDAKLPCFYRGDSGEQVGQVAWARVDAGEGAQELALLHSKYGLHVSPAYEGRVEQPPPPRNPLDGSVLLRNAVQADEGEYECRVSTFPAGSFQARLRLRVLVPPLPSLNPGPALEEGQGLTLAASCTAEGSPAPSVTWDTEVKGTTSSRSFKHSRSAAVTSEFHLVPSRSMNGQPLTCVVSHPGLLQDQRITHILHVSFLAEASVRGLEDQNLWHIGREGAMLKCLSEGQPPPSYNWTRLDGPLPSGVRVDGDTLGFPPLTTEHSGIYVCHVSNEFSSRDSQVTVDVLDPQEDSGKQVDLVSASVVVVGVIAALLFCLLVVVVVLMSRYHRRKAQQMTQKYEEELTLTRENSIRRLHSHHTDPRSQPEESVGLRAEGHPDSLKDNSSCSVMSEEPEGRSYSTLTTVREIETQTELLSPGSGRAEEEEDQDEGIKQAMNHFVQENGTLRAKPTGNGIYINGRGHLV
Procedure: Affinity of the peptides of the invention for human Nectin-4 (Ki) was determined using a fluorescence polarisation assay, in accordance with the methods disclosed in WO 2016/067035. Peptides of the invention with a fluorescent tag (either fluorescein, SIGMA or Alexa Fluor488™, Fisher Scientific) were diluted to 2.5 nM in PBS with 0.01% tween 20 or 50 mM HEPES with 100 mM NaCl and 0.01% tween pH 7.4 (both referred to as assay buffer). This was combined with a titration of protein in the same assay buffer as the peptide to give 1 nM peptide in a total volume of 25 μL in a black walled and bottomed low bind low volume 384 well plates, typically 5 μL assay buffer, 10 μL protein then 10 μL fluorescent peptide. […] Measurements were conducted on a BMG PHERAstar FS equipped with an “FP 485 520 520” optic module which excites at 485 nm and detects parallel and perpendicular emission at 520 nm. The PHERAstar FS was set at 25° C. with 200 flashes per well and a positioning delay of 0.1 second, with each well measured at 5 to 10 minute intervals for 60 minutes. The gain used for analysis was determined for each tracer at the end of the 60 minutes where there was no protein in the well. Data was analysed using Systat Sigmaplot version 12.0. mP values were fit to a user defined quadratic equation to generate a Kd value: f=ymin+(ymax−ymin)/Lig*((x+Lig+Kd)/2-sqrt((((x+Lig+Kd)/2)^2)−(Lig*x))). “Lig” was a defined value of the concentration of tracer used.

human Nectin-4 [2] = target: T2, human Nectin-4 (Homo sapiens, UniProt Q96NY8); experiment: Nectin-4 Biacore SPR binding assay; settings: read-out: Human SPR Kd; peptide ligands (Table 3)
T2 sequence (Q96NY8 32-349): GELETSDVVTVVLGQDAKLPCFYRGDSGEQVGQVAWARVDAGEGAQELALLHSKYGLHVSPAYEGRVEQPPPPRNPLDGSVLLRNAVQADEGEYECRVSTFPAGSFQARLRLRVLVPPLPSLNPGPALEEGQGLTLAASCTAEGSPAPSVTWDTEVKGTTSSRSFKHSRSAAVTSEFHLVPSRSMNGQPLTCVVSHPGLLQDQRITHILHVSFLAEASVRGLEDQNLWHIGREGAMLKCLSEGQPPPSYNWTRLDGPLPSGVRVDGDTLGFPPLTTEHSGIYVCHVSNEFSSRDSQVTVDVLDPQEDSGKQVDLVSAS

human Nectin-4 [3] = target: T1, human Nectin-4; experiment: Nectin-4 competition binding assay (fluorescence polarisation); settings: competition with fluorescent peptide SEQ ID NO: 217
Summary of the method: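 Ki derived by cubic-equation fit of mP data, with tracer peptide concentration, its Kd and Nectin-4 level as fixed inputs. Competition set up by adding 2-fold peptide dilutions (≤5% DMSO), then Nectin-4, then fluorescent peptide; polarisation measured as for direct binding.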

CC(C)C[C@@H]1NC(=O)[C@H](CC(C)C)NC(=O)[C@H](Cc2c[nH]cn2)NC(=O)[C@H](CC(C)C)NC(=O)[C@H](Cc2ccccc2)NC(=O)[C@@H]2CSCCC(=O)N3CN(CN(C3)C(=O)CCSC[C@H](NC(=O)[C@H](C)N)C(=O)N[C@@H](C(C)C)C(=O)N[C@@H]([C@@H](C)O)C(=O)N[C@@H]([C@@H](C)O)C(=O)N[C@@H](CO)C(=O)N[C@@H](Cc3ccc(O)cc3)C(=O)N[C@@H](CC(=O)O)C(=O)N2)C(=O)CCSC[C@@H](C(=O)N[C@@H](C)C(N)=O)NC(=O)CNC1=O [BCY471, A-(SEQ ID NO: 35)-A] (H-ACVTTSYDCFLHLLGCA-NH2; linker 2-9-16 via TATA)
Ki (human Nectin-4 [1]): 888 nM

CC(C)C[C@@H]1NC(=O)[C@H](CCCNC(=N)N)NC(=O)[C@H](C(C)C)NC(=O)[C@H](Cc2c[nH]c3ccccc23)NC(=O)[C@@H]2CSCCC(=O)N3CN(CN(C3)C(=O)CCSC[C@@H](C(=O)N[C@@H](C)C(N)=O)NC(=O)[C@H](CCC(N)=O)NC(=O)CNC1=O)C(=O)CCSC[C@H](NC(=O)[C@H](C)N)C(=O)N[C@@H](C(C)C)C(=O)N[C@@H]([C@@H](C)O)C(=O)N[C@@H]([C@@H](C)O)C(=O)N[C@@H](CO)C(=O)N[C@@H](Cc1ccc(O)cc1)C(=O)N[C@@H](CC(=O)O)C(=O)N2 [BCY472, A-(SEQ ID NO: 36)-A] (H-ACVTTSYDCWVRLGQCA-NH2; linker 2-9-16 via TATA)
Ki (human Nectin-4 [1]): 502 nM

CC(=O)N[C@H]1CSCCC(=O)N2CN3CN(C2)C(=O)CCSC[C@H](NC(=O)[C@@H](CCCNC(=N)N)NC(=O)[C@H](Cc2cccc4ccccc24)NC(=O)[C@@H]2CCCN2C1=O)C(=O)N[C@@H](CC(C)C)C(=O)N[C@@H](CCCCNC(=N)N)C(=O)N[C@@H](CC(=O)O)C(=O)N[C@@H](Cc1c[nH]c2ccccc12)C(=O)N[C@@H](CO)C(=O)N[C@@H]([C@@H](C)O)C(=O)N1CCC[C@H]1C(=O)N1C[C@H](O)C[C@H]1C(=O)N[C@@H](Cc1c[nH]c2ccccc12)C(=O)N[C@H](C(N)=O)CSCCC3=O [BCY8213, Ac-(SEQ ID NO: 201)] (Ac-CP[1Nal][dR]CL[hArg]DWSTP[Hyp]WC-NH2; linker 1-5-15 via TATA; C-terminus assumed)
Kd (human Nectin-4 [2]): 1.95 nM | Ki (human Nectin-4 [3]): 3.5 nM

CC(=O)N[C@H]1CSCCC(=O)N2CN3CN(C2)C(=O)CCSC[C@H](NC(=O)[C@@H](CCCNC(=N)N)NC(=O)[C@H](Cc2cccc4ccccc24)NC(=O)[C@@H]2CCCN2C1=O)C(=O)N[C@@H](CC(C)C)C(=O)N[C@@H](CCCCNC(=N)N)C(=O)N[C@@H](Cc1c[nH]cn1)C(=O)N[C@@H](Cc1c[nH]c2ccccc12)C(=O)N[C@@H](CO)C(=O)N[C@@H]([C@@H](C)O)C(=O)N1CCC[C@H]1C(=O)N1C[C@H](O)C[C@H]1C(=O)N[C@@H](Cc1c[nH]c2ccccc12)C(=O)N[C@H](C(N)=O)CSCCC3=O [BCY8214, Ac-(SEQ ID NO: 202)] (Ac-CP[1Nal][dR]CL[hArg]HWSTP[Hyp]WC-NH2; linker 1-5-15 via TATA; C-terminus assumed)
Kd (human Nectin-4 [2]): 0.54 nM | Ki (human Nectin-4 [3]): 6.3 nM

CC[C@H](C)[C@@H]1NC(=O)[C@@H]2CCCN2C(=O)[C@H]([C@@H](C)O)NC(=O)[C@H](CO)NC(=O)[C@H](Cc2c[nH]c3ccccc23)NC(=O)[C@H](CC(=O)O)NC(=O)[C@H](CCCCNC(=N)N)NC(=O)[C@H](CCSC)NC(=O)[C@@H]2CSCCC(=O)N3CN(CN(C3)C(=O)CCSC[C@H](NC(C)=O)C(=O)N3CCC[C@H]3C(=O)N[C@@H](Cc3cccc4ccccc34)C(=O)N[C@H](CCCNC(=N)N)C(=O)N2)C(=O)CCSC[C@@H](C(N)=O)NC(=O)[C@H](Cc2c[nH]c3ccccc23)NC1=O [BCY8215, Ac-(SEQ ID NO: 203)] (Ac-CP[1Nal][dR]CM[hArg]DWSTPIWC-NH2; linker 1-5-15 via TATA; C-terminus assumed)
Kd (human Nectin-4 [2]): 1.62 nM | Ki (human Nectin-4 [3]): 3 nM
